# Reference: PubChem BioAssay (Tox21)
# This list was built around the results that the source calls inconclusive (neither active nor inactive); the mix of calls is not that of the screen. For part of these data: A potency beside an inconclusive call is a rough fit, not a confirmed value. Calls of active or inactive are those of the source. Unless noted, calls follow the shape of the dose curve; as a rule, active = well fitted curve in the direction sought with a large enough effect in the repeat runs; inconclusive = weak or mixed curves; inactive = no such curve, though single readings can be large; an effect the other way counts as inactive or inconclusive.
# Key:
# [1] = qHTS assay to identify small molecule agonists of H2AX (AID 1224845; active = well fitted activation curve with a large enough effect in the signal ratio in the repeat runs, not every such curve was filed as active; inconclusive = weak or mixed curves; the % refers to the signal ratio; also: potency is read from the fitted curve at half-maximal effect); settings: CHO-K1 phospho-H2AX Ser139 HTRF, 3 h; activation (H2AX phosphorylation): at 154 µM (top of the series) unless noted
# Outline: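 Wild-type CHO-K1 cells, plated overnight, exposed 3hr at 37C to 15 concentrations (0.76% DMSO final). Lysed, then HTRF anti-pH2AX (S139) cryptate and anti-H2AX-d2 antibodies, 24 hr room temperature; 665/620 nm emission read.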
# [2] = qHTS assay to identify small molecule agonists of H2AX - cell viability counter screen (AID 1224847; calls by dose curve; also: potency is read from the fitted curve at half-maximal effect; nearly all actives have a fitted effect of over 30% in size)
# Outline: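 After overnight plating of 1000 CHO-K1 cells per well, a 15-concentration compound series was applied for 3 hr at 37C. Luminescence from CellTiter-Glo, read following 30 min at room temperature, reflected cell viability.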
# [3] = qHTS RealTime-Glo MT Cell Viability Assay in HEK293 cells - 32 hour (AID 1224868); also: potency is read from the fitted curve at half-maximal effect; nearly all actives have a fitted effect of over 50% in size
# Outline: (§1)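 HEK293 cells were seeded at 600 cells/well together with NanoLuc luciferase and cell-permeant prosubstrate, preincubated 5 h at 37 C/5% CO2, then given compound in DMSO by pintool. Luminescence from viable-cell prosubstrate reduction was read repeatedly over 40 h.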
# [4] = A CellTox Green Cytotoxicity Assay to monitor cytotoxicity in HEK293 cells - 40 hour (AID 1224871); also: potency is read from the fitted curve at half-maximal effect; nearly all actives have a fitted effect of over 45% in size
# Outline: (§2)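 Cytotoxicity was tracked continuously in HEK293 cells by a DNA-binding dye excluded from viable cells. Compounds were transferred in DMSO 5 h after seeding; fluorescence was recorded at intervals up to 40 h.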
# [5] = qHTS RealTime-Glo MT Cell Viability Assay in HEK293 cells - 16 hour (AID 1224872); also: potency is read from the fitted curve at half-maximal effect; nearly all actives have a fitted effect of over 50% in size
# Outline: as §1
# [6] = qHTS RealTime-Glo MT Cell Viability Assay in HepG2 cells - 8 hour (AID 1224873); also: potency is read from the fitted curve at half-maximal effect; nearly all actives have a fitted effect of over 55% in size
# Outline: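 HepG2 cells (600/well) mixed with RealTime-Glo MT reagent, settled 5 h at 37 C/5% CO2 before compound addition. Nonlytic NanoLuc luminescence from viable-cell prosubstrate reduction read repeatedly during 40 h treatment at 37 C.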
# [7] = qHTS RealTime-Glo MT Cell Viability Assay in HEK293 cells - 0 hour (AID 1224880); also: potency is read from the fitted curve at half-maximal effect; nearly all actives have a fitted effect of over 45% in size
# Outline: (§3)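 Nonlytic bioluminescent viability monitoring. HEK293 at 600 cells/well with reagent; 5 h settle; compound transfer by pintool; plates held at 37 C and read at set time points.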
# [8] = qHTS RealTime-Glo MT Cell Viability Assay in HEK293 cells - 40 hour (AID 1224874); settings: RealTime-Glo luminescence; max response: hits give low values; also: potency is read from the fitted curve at half-maximal effect; nearly all actives have a fitted effect of over 50% in size
# Outline: as §3
# [9] = qHTS assay to identify small molecule agonists of the estrogen related receptor (ERR) signaling pathway from Tox21 library (AID 1224849; calls by dose curve; also: % is scaled to controls: 0 for no effect and ±100 for the full control effect; nearly all actives have a fitted effect of over 15% in size); settings: ERR reporter cell line, ONE-Glo luciferase, 18 h; at 42.5 µM (top of the series)
# Outline: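 Agonist signal is luciferase luminescence from an ERR reporter cell line treated 18 h at 37 C with DMSO-dissolved compounds, read 30 min after ONE-Glo addition at room temperature.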
# [10] = A CellTox Green Cytotoxicity Assay to monitor cytotoxicity in HEK293 cells - 24 hour (AID 1224875); also: nearly all actives have a fitted effect of over 45% in size; also: potency is read from the fitted curve at half-maximal effect; as to activity change: % is scaled to controls: 0 for no effect and ±100 for the full control effect
# Outline: as §2
# [11] = A CellTox Green Cytotoxicity Assay to monitor cytotoxicity in HepG2 cells - 40 hour (AID 1224879); also: nearly all actives have a fitted effect of over 40% in size; also: potency is read from the fitted curve at half-maximal effect
# Outline: (§4)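 Real-time, homogeneous cytotoxicity readout: dead-cell DNA staining by CellTox Green in HepG2 monolayers, fluorescence measured at timed intervals up to 40 h of continuous compound exposure.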
# [12] = A CellTox Green Cytotoxicity Assay to monitor cytotoxicity in HepG2 cells - 16 hour (AID 1224876); also: potency is read from the fitted curve at half-maximal effect; nearly all actives have a fitted effect of over 45% in size
# Outline: as §4
# [13] = A CellTox Green Cytotoxicity Assay to monitor cytotoxicity in HepG2 cells - 24 hour (AID 1224878)
# Outline: as §4
# [14] = A CellTox Green Cytotoxicity Assay to monitor cytotoxicity in HEK293 cells - 32 hour (AID 1224881); also: potency is read from the fitted curve at half-maximal effect; nearly all actives have a fitted effect of over 40% in size
# Outline: as §2
# Tags tell the direction and shape of the fitted curve or compound fluorescence and quenching.
smiles,measurement,setting,value
CNC(=O)c1ccccc1Sc1ccc2c(/C=C/c3ccccn3)n[nH]c2c1,Potency,[1],"inconclusive: 49.2 µM [fluorescent, partial curve]"
same,Potency,[2],"inconclusive: 49.2 µM [cytotoxic, single point]"
same,Potency,[3],active: 9.52 µM
same,Potency,[4],"inconclusive: 5.35 µM [activator, single point]"
same,Potency,[5],"inconclusive: 4.77 µM [cytotoxic, full curve]"
same,Potency,[6],"inconclusive: 15.1 µM [falling, partial curve]"
same,Potency,[7],"inconclusive: 23.9 µM [falling, single point]"
CCOC(=O)c1ccc(C#Cc2ccc3c(c2)C(C)(C)CCS3)nc1,Potency,[1],"inconclusive: 49.2 µM [rising, partial curve]"
same,Potency,[2],inconclusive: 61.9 µM [cytotoxic]
same,Potency,[3],"inconclusive: 19 µM [cytotoxic, partial curve]"
same,Potency,[5],"inconclusive: 19 µM [cytotoxic, partial curve]"
same,Potency,[8],"inconclusive: 19 µM [cytotoxic, partial curve]"
O=C1c2ccccc2C(=O)C1c1ccc(Br)cc1,Potency,[1],"inconclusive: 55.2 µM [falling, partial curve, poor fit]"
same,"activity change, positive = activation",[9],active: 99.8%
same,Potency,[10],inactive
CNCC(O)c1ccc(O)c(O)c1 (configuration not stated),Potency,[1],"inconclusive: 55.2 µM [cytotoxic, partial curve]"
same,"activity change, positive = activation",[9],inconclusive: 6.1%
same,Potency,[11],inactive
Cc1ccc(N)cc1O,Potency,[1],inconclusive: 89.8 µM
same,Potency,[3],"inconclusive: 17.4 µM [rising, full curve]"
same,Potency,[5],inconclusive: 38.9 µM
same,Potency,[8],"inconclusive: 17.4 µM [rising, full curve]"
same,Potency,[10],"inconclusive: 54.9 µM [activator, single point]"
same,Potency,[12],"inconclusive: 5.49 µM [activator, full curve, poor fit]"
same,Potency,[13],"inconclusive: 5.49 µM [activator, full curve, poor fit]"
same,Potency,[11],"inconclusive: 4.9 µM [activator, full curve, poor fit]"
same,Potency,[14],"inconclusive: 54.9 µM [activator, partial curve, poor fit]"
